What was measured:
[1] = target: T1, Bromodomain-containing protein 4 (Homo sapiens, UniProt O60885)
[2] = target: Bromodomain-containing protein 2 (Homo sapiens, UniProt P25440)
[3] = target: Bromodomain-containing protein 3 (Homo sapiens, UniProt Q15059)
[4] = target: T1, Bromodomain-containing protein 4; remark: listed apart in the source

Sequence of Bromodomain-containing protein 3 (Q15059 whole entry): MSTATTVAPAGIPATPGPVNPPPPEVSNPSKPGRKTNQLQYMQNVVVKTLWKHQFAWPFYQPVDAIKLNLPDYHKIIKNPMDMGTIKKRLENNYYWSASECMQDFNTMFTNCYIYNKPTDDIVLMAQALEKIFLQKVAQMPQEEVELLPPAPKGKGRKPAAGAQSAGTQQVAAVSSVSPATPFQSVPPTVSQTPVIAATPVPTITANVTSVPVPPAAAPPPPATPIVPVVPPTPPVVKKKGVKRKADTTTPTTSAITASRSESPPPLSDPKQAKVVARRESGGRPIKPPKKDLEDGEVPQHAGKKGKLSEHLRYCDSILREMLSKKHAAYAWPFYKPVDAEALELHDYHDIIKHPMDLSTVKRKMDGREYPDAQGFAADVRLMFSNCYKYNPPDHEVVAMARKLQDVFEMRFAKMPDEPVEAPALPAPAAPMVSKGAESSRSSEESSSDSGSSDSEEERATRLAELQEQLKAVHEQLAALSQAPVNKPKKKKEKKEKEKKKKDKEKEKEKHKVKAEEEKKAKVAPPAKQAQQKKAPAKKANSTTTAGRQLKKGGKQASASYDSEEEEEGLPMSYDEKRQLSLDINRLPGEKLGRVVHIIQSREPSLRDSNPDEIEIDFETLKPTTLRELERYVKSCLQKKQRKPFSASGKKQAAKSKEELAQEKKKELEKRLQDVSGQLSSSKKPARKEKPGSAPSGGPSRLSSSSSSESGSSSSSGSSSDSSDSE
Sequence of Bromodomain-containing protein 2 (P25440 whole entry): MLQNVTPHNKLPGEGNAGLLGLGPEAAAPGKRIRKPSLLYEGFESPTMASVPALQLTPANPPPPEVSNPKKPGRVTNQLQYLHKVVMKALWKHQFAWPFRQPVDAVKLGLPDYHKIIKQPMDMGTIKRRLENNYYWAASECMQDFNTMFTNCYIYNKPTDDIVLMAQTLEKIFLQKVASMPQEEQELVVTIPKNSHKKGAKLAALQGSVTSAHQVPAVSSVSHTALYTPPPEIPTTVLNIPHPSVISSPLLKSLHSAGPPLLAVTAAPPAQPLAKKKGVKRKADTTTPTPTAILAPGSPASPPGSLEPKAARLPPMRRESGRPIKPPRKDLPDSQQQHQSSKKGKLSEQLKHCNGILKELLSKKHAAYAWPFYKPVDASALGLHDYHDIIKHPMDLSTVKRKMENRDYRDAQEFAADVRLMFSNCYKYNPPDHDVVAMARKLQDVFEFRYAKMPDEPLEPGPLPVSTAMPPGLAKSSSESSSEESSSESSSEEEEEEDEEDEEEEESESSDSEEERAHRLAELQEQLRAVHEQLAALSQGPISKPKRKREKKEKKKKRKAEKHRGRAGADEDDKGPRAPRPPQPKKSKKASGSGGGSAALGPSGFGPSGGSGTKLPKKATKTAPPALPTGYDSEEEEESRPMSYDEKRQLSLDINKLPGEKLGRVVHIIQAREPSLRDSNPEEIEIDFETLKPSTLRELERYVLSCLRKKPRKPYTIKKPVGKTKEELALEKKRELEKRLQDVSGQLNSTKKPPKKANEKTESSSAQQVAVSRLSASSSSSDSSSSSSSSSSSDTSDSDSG

| Structure (SMILES) | IC50 [1] | also measured |
| --- | --- | --- |
| Cc1cc(C)cc(Oc2nccc(-c3c(-c4ccc(I)cc4)ncn3[C@H]3CCNC3)n2)c1 | 1.1 µM |  |
| Cc1ccc(C(C)C)cc1Oc1nccc(-c2c(-c3ccc(C(F)(F)F)cc3)ncn2[C@H]2CCN(CCN(C)C)C2)n1 |  | IC50 [2]: < 50 µM; IC50 [3]: < 50 µM |
| Cc1ccc(C(C)C)cc1Oc1nccc(-c2c(-c3ccc(C(F)(F)F)cc3)ncn2[C@@H]2CCNC2)n1 | 3.8 µM |  |
| CCc1cc(C)cc(Oc2nccc(-c3c(-c4ccc(C(F)(F)F)cc4)ncn3C3CCNCC3)n2)c1 | 0.36 µM |  |
| Ic1ccc(-c2ncn(C3CCNCC3)c2-c2ccnc(Oc3ccc4c(c3)OCO4)n2)cc1 | 2.7 µM |  |
| Cc1cc(C)cc(Oc2nccc(-c3c(-c4ccc(I)cc4)ncn3[C@@H]3CCN(CCN)C3)n2)c1 | 0.26 µM |  |
| CCc1cc(C)cc(Oc2nccc(-c3c(-c4ccc(C(F)(F)F)cc4)ncn3[C@H]3CCNC3)n2)c1 | 1.1 µM |  |
| Cc1cccc(Oc2nccc(-c3c(-c4ccc(I)cc4)ncn3C3CCNCC3)n2)c1 | 0.5 µM |  |
| Cc1ccc(C(C)C)cc1Oc1nccc(-c2c(-c3ccc(C(F)(F)F)cc3)ncn2[C@H]2CCNC2)n1 | 0.88 µM |  |
| Cc1cc(C)cc(Oc2nccc(-c3c(-c4ccc(I)cc4)ncn3[C@H]3CCN(CCN)C3)n2)c1 | 0.1 µM |  |
| Cc1ccc(C)c(Oc2nccc(-c3c(-c4ccc(I)cc4)ncn3C3CCNCC3)n2)c1 | 0.27 µM |  |
| Cc1cc(C)cc(Oc2nccc(-c3c(-c4ccc(I)cc4)ncn3[C@@H]3CCNC3)n2)c1 | 1.9 µM |  |
| Cc1ccc(C(C)C)cc1Oc1nccc(-c2c(-c3ccc(C(F)(F)F)cc3)ncn2C2CCN(CCN(C)C)CC2)n1 | < 0.092 µM | IC50 [2]: < 50 µM; IC50 [3]: < 50 µM; IC50 [4]: < 50 µM |
| CCc1cc(C)cc(Oc2nccc(-c3c(-c4ccc(C(F)(F)F)cc4)ncn3[C@H]3CCN(CCN(C)C)C3)n2)c1 | 0.11 µM |  |
| Clc1cc(Cl)cc(Oc2nccc(-c3c(-c4ccc(I)cc4)ncn3C3CCNCC3)n2)c1 | 0.43 µM |  |
